Results taken from PMC11602027.
These are yes or no findings as the source states them, for the method shown. Binding seen in cells or lysates may run through a third protein. Some results given as binding are weak or reduced against the parent protein; the word gives no strength. Sequences can lack the tags named with a protein.

Tests used:
[1] = target: T1, Tea1-GFP (S. pombe) (UniProt P87061); assay: co-IP; S. pombe extracts (10 mM Tris-HCl pH 7.5, 150 mM NaCl, 0.5 mM EDTA, 0.5% NP40) precipitated with GFP-Trap magnetic beads, 1 h at 4°C; blotted with anti-HA or anti-GFP
T1 sequence: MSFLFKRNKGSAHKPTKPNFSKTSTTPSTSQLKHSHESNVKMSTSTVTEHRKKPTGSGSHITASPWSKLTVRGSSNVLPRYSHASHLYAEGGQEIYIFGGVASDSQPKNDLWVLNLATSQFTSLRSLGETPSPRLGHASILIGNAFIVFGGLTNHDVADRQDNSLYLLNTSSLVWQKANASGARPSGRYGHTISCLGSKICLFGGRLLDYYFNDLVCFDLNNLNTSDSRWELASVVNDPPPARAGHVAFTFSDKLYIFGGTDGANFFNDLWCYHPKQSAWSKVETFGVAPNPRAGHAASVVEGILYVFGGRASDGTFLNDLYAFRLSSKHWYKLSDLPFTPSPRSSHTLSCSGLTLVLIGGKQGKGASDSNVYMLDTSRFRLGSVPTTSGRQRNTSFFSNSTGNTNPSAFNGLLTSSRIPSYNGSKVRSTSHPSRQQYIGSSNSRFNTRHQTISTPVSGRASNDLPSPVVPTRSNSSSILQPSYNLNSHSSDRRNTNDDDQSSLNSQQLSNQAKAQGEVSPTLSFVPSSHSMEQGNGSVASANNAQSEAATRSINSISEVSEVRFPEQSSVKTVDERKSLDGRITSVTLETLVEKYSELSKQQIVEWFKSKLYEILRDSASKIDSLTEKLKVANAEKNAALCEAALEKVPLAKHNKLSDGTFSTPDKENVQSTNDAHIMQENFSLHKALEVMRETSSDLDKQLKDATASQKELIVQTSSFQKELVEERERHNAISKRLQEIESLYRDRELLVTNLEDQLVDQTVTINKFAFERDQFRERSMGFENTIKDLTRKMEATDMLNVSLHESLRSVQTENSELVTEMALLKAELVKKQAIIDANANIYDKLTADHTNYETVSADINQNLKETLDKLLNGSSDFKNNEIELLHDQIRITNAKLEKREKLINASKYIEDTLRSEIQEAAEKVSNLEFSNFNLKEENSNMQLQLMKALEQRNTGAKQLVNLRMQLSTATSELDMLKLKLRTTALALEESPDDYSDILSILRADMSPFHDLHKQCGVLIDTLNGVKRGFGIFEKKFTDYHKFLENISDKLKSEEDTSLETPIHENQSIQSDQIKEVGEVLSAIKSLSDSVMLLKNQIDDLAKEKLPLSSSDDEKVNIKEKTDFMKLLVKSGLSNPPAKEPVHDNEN

[2] = target: T2, GFP-tagged Tea4 (S. pombe) (UniProt O60132); assay: as above
T2 sequence: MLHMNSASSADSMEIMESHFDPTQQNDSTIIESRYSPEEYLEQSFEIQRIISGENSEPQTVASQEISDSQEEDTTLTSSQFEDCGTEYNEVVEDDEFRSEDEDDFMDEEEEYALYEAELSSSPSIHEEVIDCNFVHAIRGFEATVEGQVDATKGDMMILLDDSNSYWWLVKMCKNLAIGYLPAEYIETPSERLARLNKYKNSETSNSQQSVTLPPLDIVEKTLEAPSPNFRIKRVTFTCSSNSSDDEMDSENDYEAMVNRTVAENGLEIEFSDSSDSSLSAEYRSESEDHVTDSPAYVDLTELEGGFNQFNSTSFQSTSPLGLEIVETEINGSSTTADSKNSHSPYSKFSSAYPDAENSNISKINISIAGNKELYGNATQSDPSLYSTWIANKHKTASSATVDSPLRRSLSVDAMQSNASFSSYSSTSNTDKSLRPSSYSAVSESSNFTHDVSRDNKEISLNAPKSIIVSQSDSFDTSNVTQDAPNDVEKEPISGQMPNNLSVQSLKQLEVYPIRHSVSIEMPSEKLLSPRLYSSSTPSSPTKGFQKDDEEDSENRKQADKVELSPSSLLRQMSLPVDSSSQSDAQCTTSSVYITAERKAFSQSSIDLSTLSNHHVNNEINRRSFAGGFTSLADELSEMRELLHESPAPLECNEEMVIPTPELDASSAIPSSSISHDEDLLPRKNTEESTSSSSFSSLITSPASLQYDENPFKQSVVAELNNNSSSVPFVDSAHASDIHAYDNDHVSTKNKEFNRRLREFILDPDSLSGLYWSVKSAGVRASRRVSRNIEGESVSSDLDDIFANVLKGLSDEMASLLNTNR

[3] = target: T3, GST-Tea4 (S. pombe) (UniProt O60132); assay: pull-down; 2 to 10 μg GST-tagged protein purified from E. coli and coupled to GS beads, incubated 2 h with S. pombe cell extracts (2 to 3 mg total protein; 50 mM Tris-HCl pH 7.5, 20 mM NaCl, 0.5% NP-40, 10% glycerol); blotted with anti-HA or anti-GFP; GS beads alone as control; only the target purified
T3 sequence: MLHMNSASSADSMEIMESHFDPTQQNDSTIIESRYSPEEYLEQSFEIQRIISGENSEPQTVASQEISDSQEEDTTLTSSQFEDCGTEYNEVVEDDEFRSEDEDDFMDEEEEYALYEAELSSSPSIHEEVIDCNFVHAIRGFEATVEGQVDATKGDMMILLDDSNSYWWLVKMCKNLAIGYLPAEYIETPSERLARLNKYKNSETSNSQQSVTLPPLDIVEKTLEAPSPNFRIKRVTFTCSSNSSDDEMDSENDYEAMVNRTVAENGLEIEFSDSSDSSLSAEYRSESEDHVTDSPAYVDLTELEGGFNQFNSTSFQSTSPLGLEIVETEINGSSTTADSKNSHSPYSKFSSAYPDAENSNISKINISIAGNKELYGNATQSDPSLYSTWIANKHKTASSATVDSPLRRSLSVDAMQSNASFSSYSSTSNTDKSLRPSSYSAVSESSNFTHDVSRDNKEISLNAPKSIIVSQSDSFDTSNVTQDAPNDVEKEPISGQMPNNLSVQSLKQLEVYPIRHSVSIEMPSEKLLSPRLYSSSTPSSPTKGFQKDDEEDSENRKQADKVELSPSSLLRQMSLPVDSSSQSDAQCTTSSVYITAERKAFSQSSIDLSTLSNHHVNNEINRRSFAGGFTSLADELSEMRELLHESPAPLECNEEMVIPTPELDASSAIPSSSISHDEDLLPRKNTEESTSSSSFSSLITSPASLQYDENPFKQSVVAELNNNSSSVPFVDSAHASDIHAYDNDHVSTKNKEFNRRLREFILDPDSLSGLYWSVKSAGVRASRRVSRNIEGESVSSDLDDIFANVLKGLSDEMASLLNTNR

binding [1]: no binding
binding [2]: binds
binding [3]: binds
B1: HA-tagged Rgf1 (protein, UniProt Q9Y7U6 1-1334)
chain: MDYRHPNALGVNESSRAYEEIFGAPRKREPARTVSTPAFMEPAPVSKKPLPPPTRRLPRKPLPFRSTSLQPPSSQPPAPPTHQREASPVKNIEHSESFPSVFGTSNNHQIVPLTLKDGNDFGALYASLNTTPHFPQVSNHAPNNSNSPSLTWHTSSGDDSNQNPFFVRRQSQSSTSPVSDSVDENLLSAVSSVTESVETNLHLDQNYPYGSPVRSSKNPFLSSNSRLPTDDSSHTVGSHSFTSGTHPPIVSSNSAFTLPNAVTPAAQAPLIRSVSEYPANVSPPAQSLQLPKSTSNPADLHLSIASASSHKNIFSGLDVFSNVFHGPSTTLRDREHDMRNRSFDHSTLAHYEAVKQQRLGVEPTARSFTLSSYKSRASGNSLINDRSSTTTPTFVNSEASSPVHKNKRRRRIYAALLSRVASELLDRLQLGDITKDGLIYSNAFTGDHAVTVLMGIIHTSDRNLALLVGRSLDAQKFIHDVTYDHRLRDSHREIYQLQGTGYRPFLRANDNASINNKNHHKELEDNESGTRISPSTLGDTSFPNGIFTLLTHCYSPTCAKDHPCYSISCPRRLEQQHRLFAKMRANTEQSSSLAFDDKEQKLWIHSVPQEIAYSVSDRERKRQEVICEVIYTERDFVKDLEYLRDYWIKPLWASSCIPERKKEKFIRTVFLNALEVQAVNSKLAEALTKRQNYKPIVDNIADIFLEHVPKFEPFIRYGAGQLYGKYEFEKEKSSNPAFAKFVSDVERLKESRKLELNGYLTKPTTRLARYPLLLEAVLKYTDEGNPDKQDIPKVINIVRGFLSRLNVESGKAENKFNLFHLNQQLVFKPGEHYDLHLLDANRQLIFKGPLKKRSAGSTSSESASDVTLFLFDHALLIVKPKTINKRELLKVFQRPIPLLLLQLFLVDDNGLRIPYSSKQQLAAVSKAANGKPPSRFYPFSLQLLGRRGYEITLYATTEVSRDKWLEHIDNQQTLLQHRNQWFESVTICSNFFVGDNKVNAIGVYDSGRRLLYGTDTGVYVSLRKANSPLQFKPVRALNIPNISQLEVIEEYSLLLLLSDKVLYSYPLEMIDADTTQAPKKARKVSGHTTFFRVGICLGKVLVCAVKSSVLSATIKVFEPVTNYSKTRNMPSLKKFLTVNQDPLRIVKELYIPTESTSVHFLKNKLCVGCTRGFEVVSLDNLETQSLLDPADTSLEFVEKKENVKPIAIYRMNGGEFLLCYSQFAFYVNRDGWRSRPTWFVVWEGSPQNFALSYPYILAFEPTFIEIRHVETSELIHVISGRNIRLLADGRGKLGDGGEIFYACDQRGENCETSVVCSLRLTSAAAHAKEQHVDK
